Measured values from article PMC10850145, “Hormonal steroids induce multidrug resistance and stress response genes in Neisseria gonorrhoeae by binding to MtrR” (Nature Communications, 2024).
Values joined by “and” are separate entries in the source; they are usually repeats but may differ in a detail not shown here. Equal entries are not always repeated. Where two headings read alike, the source gives them in different places. This continues a long series; more values of the same kind are listed elsewhere.

Tested on: mtrC-lacZ expression
Assay type: cell-based, Neisseria gonorrhoeae
Settings: for β-galactosidase activity, Miller units (single replicate): ΔmtrR + mtrR WT in trans, first data set (c15-c36); for Miller units: mtrC-lacZ
[1] = ΔmtrR + mtrR D171A in trans, 6.25 µM hormone, single replicate
[2] = ΔmtrR + mtrR D171A in trans, 12.5 µM hormone, single replicate
[3] = ΔmtrR + mtrR D171A in trans, 25 µM hormone, single replicate
[4] = ΔmtrR + mtrR D171A in trans, 50 µM hormone, single replicate

Row | SMILES | β-galactosidase activity, Miller units (single replicate) (6.25 µM) [Miller units] | β-galactosidase activity, Miller units (single replicate) (12.5 µM) | β-galactosidase activity, Miller units (single replicate) (25 µM) | β-galactosidase activity, Miller units (single replicate) (50 µM) | Miller units (WT, 6.25 µM hormone, single replicate (plate data)) | Miller units (WT, 12.5 µM hormone, single replicate (plate data)) | Miller units (WT, 25 µM hormone, single replicate (plate data)) | Miller units (WT, 50 µM hormone, single replicate (plate data)) | Miller units [1] | Miller units [2] | Miller units [3] | Miller units [4] | Miller units (ΔmtrR, 6.25 µM hormone, single replicate (plate data)) | Miller units (ΔmtrR, 12.5 µM hormone, single replicate (plate data)) | Miller units (ΔmtrR, 25 µM hormone, single replicate (plate data)) | Miller units (ΔmtrR, 50 µM hormone, single replicate (plate data)) | β-galactosidase activity, Miller units (single replicate) (1 µM) [Miller units] | β-galactosidase activity, Miller units (single replicate) (10 µM) [Miller units] | β-galactosidase activity, Miller units (single replicate) (100 µM)
1 | CC(=O)[C@H]1CC[C@H]2[C@@H]3CCC4=CC(=O)CC[C@]4(C)[C@H]3CC[C@]12C [Progesterone, progesterone] | 103 | 130 Miller units | 126 Miller units and 121 Miller units | 150 Miller units and 160 Miller units |  |  |  |  |  |  |  |  |  |  |  |  |  |  | 
2 | C[C@]12CC[C@H]3[C@@H](CCC4=CC(=O)CC[C@@]43C)[C@@H]1CC[C@@H]2O [Testosterone, testosterone] |  |  |  | 246 Miller units | 164 Miller units and 134 Miller units and 127 Miller units and 139 Miller units | 186 Miller units and 164 Miller units and 155 Miller units and 161 Miller units | 189 Miller units and 186 Miller units and 165 Miller units and 170 Miller units | 222 Miller units and 215 Miller units and 166 Miller units and 177 Miller units | 167 Miller units and 161 Miller units and 191 Miller units | 177 Miller units and 161 Miller units and 186 Miller units | 179 Miller units and 168 Miller units and 147 Miller units | 158 Miller units and 156 Miller units | 276 Miller units and 252 Miller units and 246 Miller units and 285 Miller units | 296 Miller units and 248 Miller units and 237 Miller units and 196 Miller units | 284 Miller units and 276 Miller units and 289 Miller units and 254 Miller units | 310 Miller units and 287 Miller units and 255 Miller units and 237 Miller units | 148 | 185 | 230 Miller units and 308 Miller units
3 | C[C@]12CC[C@@H]3c4ccc(O)cc4CC[C@H]3[C@@H]1CC[C@@H]2O [β-Estradiol, β-estradiol] | 110 | 110 Miller units and 145 Miller units | 131 Miller units and 160 Miller units | 138 Miller units and 154 Miller units |  |  |  |  | 147 Miller units and 135 Miller units | 195 Miller units and 119 Miller units | 132 Miller units and 171 Miller units | 188 Miller units and 124 Miller units and 146 Miller units |  |  |  |  |  |  | 
